Results from the supplement of paper PMC3334620.
Over roughly 33,000 sequences, “E-score (-0.5 to 0.5)” has its median near -0.021; the highest 2% begin near 0.32. Some of the results follow.

Molecular target: T1, Zap1 (UniProt P47043)
T1 sequence: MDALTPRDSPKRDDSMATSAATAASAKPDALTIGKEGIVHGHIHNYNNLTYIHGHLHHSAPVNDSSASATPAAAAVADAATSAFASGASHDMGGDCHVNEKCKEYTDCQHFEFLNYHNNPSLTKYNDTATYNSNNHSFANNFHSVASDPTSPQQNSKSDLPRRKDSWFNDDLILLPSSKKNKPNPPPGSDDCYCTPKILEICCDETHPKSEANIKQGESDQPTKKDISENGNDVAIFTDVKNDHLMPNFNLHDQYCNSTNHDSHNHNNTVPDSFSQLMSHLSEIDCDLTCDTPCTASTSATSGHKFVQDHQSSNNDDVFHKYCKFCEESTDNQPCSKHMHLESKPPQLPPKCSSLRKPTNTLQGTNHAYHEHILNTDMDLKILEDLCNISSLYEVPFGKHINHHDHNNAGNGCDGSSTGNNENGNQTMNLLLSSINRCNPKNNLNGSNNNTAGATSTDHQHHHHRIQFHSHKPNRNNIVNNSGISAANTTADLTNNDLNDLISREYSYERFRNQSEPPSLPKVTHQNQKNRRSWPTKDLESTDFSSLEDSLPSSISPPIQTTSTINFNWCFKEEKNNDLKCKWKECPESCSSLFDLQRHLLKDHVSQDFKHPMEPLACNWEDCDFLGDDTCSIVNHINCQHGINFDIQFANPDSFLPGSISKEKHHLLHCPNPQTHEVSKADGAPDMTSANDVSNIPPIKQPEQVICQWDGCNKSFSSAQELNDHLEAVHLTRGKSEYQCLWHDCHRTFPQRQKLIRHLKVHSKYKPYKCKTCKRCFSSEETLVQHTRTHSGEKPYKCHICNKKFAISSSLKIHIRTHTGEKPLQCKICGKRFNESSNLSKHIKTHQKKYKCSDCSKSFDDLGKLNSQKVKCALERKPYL
Assay: PBM E-score (8-mer binding enrichment) (E-score (-0.5 to 0.5)); higher = stronger / more preferred TF binding; most listed sequences are background and not binding sites
Details: protein concentration: 200 nM; construct: GST-full length
Experimental: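 Universal 'all 10-mer' protein binding microarrays (Agilent AMADID 015681) probed with GST-tagged S. cerevisiae TFs (full-length or DBD) made by in vitro transcription/translation (PURExpress), about 100-200 nM. Bound TF was detected with fluorescent anti-GST. Each ungapped 8-mer (which stands for itself and its reverse complement) is scored by the PBM enrichment score (E-score), a modified Wilcoxon-Mann-Whitney statistic from -0.5 to +0.5, computed with the Universal PBM Analysis Suite. Scale: above 0.35 generally sequence-specific binding.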

Row | Sequence | PBM E-score
1 | CGTATTAC | 0.0167
2 | GAGTTTAA | 0.121
3 | GACCCTAA | 0.433
4 | CGCTTGAC | -0.0888
5 | ATTCAGGG | 0.144
6 | CGCATTGA | -0.135
7 | CTCTGAAC | -0.144
8 | CGGATGAC | -0.0532
9 | AAAGCTAA | 0.0253
10 | GGACCTGA | -0.0642
11 | ATGCAGGG | -0.0971
12 | CGATCGCA | 0.116
13 | AGGTCCGC | -0.027
14 | CGCTGGGC | -0.329
15 | ACAAATAA | 0.224
16 | CCACTCGC | -0.057
17 | TACGCACA | 0.0253
18 | CAGTCGGG | 0.0489
19 | AGGATGCA | -0.0265
20 | AGTAATCA | 0.0871
21 | ATCCGTTA | 0.079
22 | CAAAGACA | 0.0257
23 | ACGTCCTA | -0.113
24 | GAACGCAC | 0.0998
25 | TATTCGGA | 0.139

Row | Sequence | PBM E-score
26 | GAACCGGA | 0.0894
27 | TGGGCGAA | -0.122
28 | CGACCGAC | -0.167
29 | ACAAATTG | 0.0624
30 | CCTGGTTA | 0.306
31 | ATATCCGG | 0.148
32 | TCTCAGCA | -0.0415
33 | GCTATCAC | -0.182
34 | GTACGCGA | -0.129
35 | TGGCCACA | 0.158
36 | CTCCAGTC | -0.196
37 | CGGAAACG | -0.111
38 | AGTGAGGG | -0.112
39 | ACCTTTTG | 0.364
40 | ACGGCATA | 0.0795
41 | ATCCACTC | 0.0285
42 | TCGAGCCA | -0.288
43 | AACAGTTG | -0.0751
44 | ACCCGCCT | -0.102
45 | ATTAGCGC | -0.112
46 | AAACGTAG | -0.0378
47 | AAGGACTC | -0.173
48 | AAGGAGAG | -0.169
49 | GCAATTAA | 0.18
50 | ATGTTCGG | -0.00942

Row | Sequence | PBM E-score
51 | ACGTGATC | -0.0816
52 | CAAACATA | 0.0295
53 | CTATACTA | 0.0278
54 | AGACCAAA | 0.167
55 | AGGTGAAC | 0.00449
56 | GATGTGGA | -0.0924
57 | GAATCCGA | -0.17
58 | ACCTAACT | 0.206
59 | CTTCGTAC | -0.0954
60 | ATCATTCC | 0.00628
61 | CCTCAACG | -0.0206
62 | GACCCCCA | -0.198
63 | CTACAAAC | 0.0847
64 | AATCTCGC | -0.0495
65 | CAGCATTA | -0.1
66 | AAGCACAA | 0.154
67 | CTAGCCAG | -0.127
68 | GGCTATAC | -0.135
69 | AACTTTTG | 0.202
70 | ACCATTAT | 0.282
71 | CGCGTCGC | -0.204
72 | AAGGTAAA | 0.187
73 | TGACATAA | 0.0975
74 | AACAATCT | -0.0319
75 | TATTAACA | 0.166

Row | Sequence | PBM E-score
76 | AGAAGTGG | -0.243
77 | CACGATGG | -0.245
78 | AGTCGGTG | -0.199
79 | GCACCTAA | 0.0772
80 | AATGCGAG | 0.119
81 | ACGCGAAT | -0.00753
82 | GGACTAGA | -0.0749
83 | ACATGTAT | -0.00295
84 | CGCAAGCA | 0.014
85 | CGCCCTCA | -0.099
86 | ATGAAGGC | -0.0524
87 | CTTAACCA | 0.376
88 | AGATGACC | 0.283
89 | TAAACGAA | 0.109
90 | ACCGCAGG | 0.197
91 | AACTTCTT | 0.0979
92 | CATGTGAC | 0.0821
93 | AACATAGA | 0.0203
94 | CCATATCC | 0.00402
95 | AGGGCGAT | -0.276
96 | GCCTTCGC | -0.189
97 | CGTGCGAA | -0.0433
98 | ACCCAAAA | 0.345
99 | GGTACGTA | 0.0757
100 | CAAGGCAA | -0.156

Row | Sequence | PBM E-score
101 | TATATACA | 0.163
102 | ACCCGGCG | 0.0443
103 | AGCAGACT | -0.121
104 | CAGACTGA | -0.165
105 | CTATTTCC | 0.0187
106 | CACACCCC | -0.0271
107 | ACATACGT | -0.164
108 | ATAGGTCA | 0.301
109 | AGGGGGTG | -0.204
110 | CGCCTGAA | -0.0343
111 | ACAATGAC | 0.0347
112 | GAATTTAC | 0.00277
113 | ACAGGCTG | -0.383
114 | ACGGGAAA | -0.0137
115 | GACAAGGC | -0.317
116 | AATAACTG | 0.14
117 | GCTCGAGC | -0.169
118 | AATCGGAC | -0.1
119 | CCACTGTA | 0.173
120 | GGCGTGAA | -0.164
121 | ACTGAGCG | -0.147
122 | AAGTCCAC | -0.026
123 | GCGTATCA | 0.0484
124 | CAGCGGCA | -0.199
125 | ACCAGTGA | 0.085

Row | Sequence | PBM E-score
126 | GAATTGAA | -0.0182
127 | CTAGCCTC | -0.132
128 | CGACTTGA | -0.157
129 | TGACAGCA | 0.0488
130 | CACACTAG | -0.11
131 | ACGACGTG | -0.233
132 | ACGAATGA | 0.0909
133 | GGCTACAA | 0.0863
134 | GTTCAAGA | -0.0423
135 | ATCGGAAA | 0.0434
136 | GCCTACCC | -0.0197
137 | CCGCCGTC | -0.143
138 | GCCCTACC | 0.0168
139 | ATGGAGCA | 0.00134
140 | AACTCCTC | -0.295
141 | GCGGCATA | -0.0646
142 | TAATGAAA | 0.215
143 | TACTTACA | 0.0955
144 | AGGACATC | 0.0966
145 | CAGGCGAG | -0.225
146 | CGCGCAGA | 0.0131
147 | ATGGTGGG | -0.147
148 | GTGACAAA | 0.0704
149 | GGACCCGA | 0.0568
150 | TAAATACA | 0.0515

Row | Sequence | PBM E-score
151 | TCGTGAAA | -0.0389
152 | AACTCTCG | -0.0525
153 | GGACTTTA | -0.099
154 | TGTGCTAA | 0.0634
155 | AACCTTAG | 0.324
156 | AGTATGCG | -0.12
157 | CCCCGCCA | 0.116
158 | AGGCGTCG | -0.146
159 | CAGTTATG | 0.0774
160 | AGACTTAT | -0.107
161 | GCACCCGA | 0.314
162 | AACGTGCT | -0.289
163 | AAATAATA | 0.0675
164 | ACCAACGG | -0.0577
165 | AGCGGTTG | 0.216
166 | CGGCAGAC | -0.235
167 | AGCAGGGG | -0.0612
168 | ATGGTGCC | -0.22
169 | CTGTGCTC | -0.113
170 | GAACTCAA | 0.116
171 | AGCGGCTG | -0.217
172 | GAAAGGGA | -0.107
173 | GCACTAAC | -0.166
174 | AATTTTGT | 0.101
175 | AGCACGAC | -0.0783

Row | Sequence | PBM E-score
176 | ATCCTGGC | -0.0606
177 | AATTCAGC | -0.109
178 | CACAGTCC | -0.0387
179 | GCCGCAGC | -0.242
180 | ACCTCATG | 0.226
181 | GGAGAATA | -0.0248
182 | CGTGCGGC | -0.0871
183 | CAGAAGCG | -0.0447
184 | GTTTTAAA | 0.175
185 | GCGGGTGA | 0.0991
186 | GTAATTAC | 0.209
187 | GTGTCCAA | 0.0157
188 | ACCGTAGC | -0.102
189 | CGTCAACC | -0.0189
190 | GATATTTA | 0.089
191 | TAGTTGCA | 0.116
192 | CCACGACA | -0.1
193 | CAGGGAGG | -0.24
194 | ACGCTGGA | -0.218
195 | CTGTTATC | 0.0763
196 | AAACGTCA | -0.153
197 | GGTGGGCA | -0.0358
198 | CCACTACG | 0.00089
199 | GAGACAGA | -0.113
200 | ATTCGGTC | -0.00249

Row | Sequence | PBM E-score
201 | CAACGCGA | 0.00035
202 | ACCGCGCA | 0.19
203 | GAACGAGA | -0.227
204 | GTTGGCCA | -0.015
205 | ACGGACGC | -0.169
206 | CCGGCGCG | 0.0165
207 | ATCATCAG | -0.0715
208 | TATGTAAA | 0.2
209 | AGTATCAA | 0.0988
210 | CCGCTTCG | -0.153
211 | AACAAGCA | -0.00089
212 | CGGTTGGA | -0.226
213 | ATTGCAGG | 0.0374
214 | AGATGGTG | -0.0964
215 | ATTGAAAT | 0.127
216 | TTTACAAA | 0.151
217 | ACATAACG | 0.0512
218 | CCTTTATA | 0.128
219 | CCCCGTGC | -0.114
